The list shows a part of the results. The full chains were built here from the parent and the listed change. Inactive controls read about 0.05.
B1: TEV protease; numbered along this chain (parent)
chain: MGESLFKGPRDYNPISSSICHLTNESDGHTTSLYGIGFGPFIITNKHLFRRNNGTLVVQSLHGVFKVKDTTTLQQHLVDGRDMIIIRMPKDFPPFPQKLKFREPQREERICLVTTNFQTKSMSSMVSDTSCTFPSGDGIFWKHWIQTKDGQCGSPLVSTRDGFIVGIHSASNFTNTNNYFTSVPKNFMELLTNQEAQQWVSGWRLNADSVLWGGHKVFMVKPEEPFQPVKEATQL

Variants of: B1
Experiment: raw area under fraction-flipped curve 0-4 h after induction (AUC4h, not background-subtracted), DNA-recorder readout of cleavage of the substrate (dimensionless); higher = more cleavage of the substrate by the protease variant
Settings: temperature: 34 °C; time window: 0-4 h after rhamnose induction
Description: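 In vivo DNA recorder in E. coli TOP10(DE3) ΔrhaA at 34 °C. Each TEVp single-site mutant (parent TEVp 0) is paired with a single-site variant of the 7-mer TEVs (canonical ENLYFQ|S). The substrate sits between flexible linkers in a Bxb1-sfGFP-TEVs-SsrA fusion, so cleavage stabilises Bxb1 and speeds flipping of a recombination array, read by NGS. The value is the raw area under the fraction-flipped curve over 0-4 h after rhamnose induction (AUC4h), with ≥20 reads per time point. It is not background-subtracted; inactive controls average about 0.047.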
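Also: Bxb1 expression induced with 0.2% (w/v) L-rhamnose at OD600 near 0.5, cultures sampled hourly, flipped fraction per protease–substrate barcode pair counted by paired-end Illumina sequencing.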

Row | Variant | area with substrate CNLYFQS | area with substrate KNLYFQS | area with substrate QNLYFQS | area with substrate RNLYFQS | area with substrate TNLYFQS | area with substrate WNLYFQS | area with substrate YNLYFQS | area with substrate GNLYFQS | area with substrate HNLYFQS | area with substrate LNLYFQS
1 | K90Y | 0.0849 | 0.0595 | 0.0644 | 0.0482 | 0.0635 | 0.0626 | 0.0765 |  |  | 
2 | P104E | 0.0256 | 0.0505 |  |  |  | 0.0524 |  | 0.0358 | 0.0519 | 0.0704
3 | N193R | 0.0625 |  |  |  | 0.0609 |  | 0.0627 |  | 0.0716 | 0.0561
4 | A207L | 0.0599 | 0.0684 | 0.0824 |  | 0.0614 | 0.0409 |  |  | 0.0526 | 
5 | T71M | 0.0767 | 0.0149 |  |  |  | 0.0652 |  | 0.0689 | 0.0596 | 
6 | E231L | 0.0545 |  |  | 0.0447 |  | 0.0747 |  |  | 0.0657 | 
7 | V126L | 0.0644 |  |  |  | 0.0657 | 0.0622 | 0.0519 |  | 0.054 | 
8 | H62C | 0.0691 | 0.0616 | 0.0717 |  | 0.0749 |  | 0.0799 |  | 0.0633 | 0.0755
9 | R87G | 0.0635 | 0.0685 |  |  | 0.0576 |  |  |  | 0.0588 | 
10 | N172K | 0.0558 |  |  |  |  |  |  | 0.0624 |  | 0.0665
11 | G213Q | 0.0216 |  |  |  |  |  |  | 0.041 |  | 
12 | S182G | 0.0587 | 0.0594 |  |  | 0.0739 | 0.0569 | 0.056 |  | 0.06 | 
13 | F6K | 0.0681 |  |  |  |  |  | 0.0628 | 0.0561 | 0.0815 | 
14 | L205D | 0.0517 |  |  | 0.0517 |  | 0.0696 |  | 0.0491 |  | 
15 | V157I | 0.0429 | 0.0637 |  |  | 0.0711 | 0.0649 |  | 0.0538 | 0.0616 | 0.0608
16 | N186C | 0.0757 |  | 0.0616 |  | 0.0643 | 0.0608 | 0.0581 |  |  | 0.0576
17 | P93Y | 0.0575 | 0.05 | 0.0867 |  |  |  |  |  |  | 0.0603
18 | G35N | 0.031 |  |  | 0.0183 |  |  |  |  | 0.0337 | 
19 | Q227N | 0.0583 | 0.0665 |  |  | 0.0653 | 0.0559 | 0.0757 |  |  | 0.0702
20 | E3I | 0.0955 |  |  |  | 0.0707 | 0.0586 | 0.0673 | 0.0782 | 0.0546 | 
21 | N193E | 0.0537 | 0.0454 | 0.0611 |  | 0.069 | 0.0626 | 0.0527 | 0.067 |  | 0.0572

Same assay, conditions: temperature: 34 °C; time window: 0-4 h after rhamnose induction

Row | Variant | area with substrate MNLYFQS | area with substrate NNLYFQS | area with substrate PNLYFQS | area with substrate SNLYFQS | area with substrate INLYFQS | area with substrate FNLYFQS | area with substrate VNLYFQS
22 | P104E | 0.0478 | 0.0477 | 0.0448 | 0.0492 |  |  | 
23 | N193R |  |  | 0.0717 |  | 0.059 |  | 
24 | A207L |  |  |  | 0.0602 | 0.0681 | 0.0641 | 0.0461
25 | T71M |  |  | 0.0763 |  | 0.0702 |  | 
26 | E231L |  |  |  | 0.0684 |  |  | 
27 | V126L | 0.043 |  | 0.0842 | 0.0726 |  |  | 
28 | H62C | 0.0604 | 0.0629 | 0.0622 | 0.0609 | 0.0564 | 0.0537 | 0.0588
29 | R87G |  |  |  |  | 0.0381 | 0.0562 | 
30 | N172K |  | 0.04 | 0.0794 |  |  |  | 
31 | G213Q | 0.0834 |  |  | 0.0748 | 0.0518 |  | 
32 | S182G | 0.0614 | 0.0506 | 0.0636 |  |  |  | 
33 | F6K | 0.0696 |  |  |  | 0.0548 | 0.0335 | 
34 | L205D | 0.0624 | 0.0556 |  |  | 0.0533 |  | 
35 | V157I |  | 0.065 | 0.0615 | 0.058 | 0.0988 | 0.0251 | 0.045
36 | N186C |  | 0.0567 |  |  |  |  | 
37 | P93Y |  |  | 0.0613 |  |  |  | 0.0425
38 | Q227N | 0.0601 | 0.0744 | 0.0662 | 0.0722 | 0.0635 |  | 
39 | E3I | 0.0712 |  |  |  |  | 0.0684 | 
40 | N193E | 0.0707 |  |  | 0.0558 | 0.0619 | 0.0697 | 
